# This is one part of the list.
# B1: ConA (Canavalia ensiformis), P02866 (protein)
# chain: MAISKKSSLFLPIFTFITMFLMVVNKVSSSTHETNALHFMFNQFSKDQKDLILQGDATTGTDGNLELTRVSSNGSPQGSSVGRALFYAPVHIWESSAVVASFEATFTFLIKSPDSHPADGIAFFISNIDSSIPSGSTGRLLGLFPDANVIRNSTTIDFNAAYNADTIVAVELDTYPNTDIGDPSYPHIGIDIKSVRSKKTAKWNMQNGKVGTAHIIYNSVDKRLSAVVSYPNADSATVSYDVDLDNVLPEWVRVGLSASTGLYKETNTILSWSFTSKLKSNEIPDIATVV
# What was measured:
# Test in all cases: glycan array binding signal (z-score within array); higher = stronger binding
# Settings in all cases: glycan notation: IUPAC condensed, linker removed
# GlcNAc(b1-3)Man = biological target: GlcNAc(b1-3)Man
# Summary of the method: (§1)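 From the Consortium for Functional Glycomics database, 3228 arrays were curated, keeping only those whose protein sequence was available. Binding is given as a within-array Z-score averaged across arrays sharing a protein sequence and across linkers. Negative Z-scores can be read as non-binding.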
# [1] = biological target: GlcNAc(b1-3)[GlcNAc(b1-4)][GlcNAc(b1-6)]GlcNAc
# Summary of the method: as §1
# [2] = biological target: GlcNAc(b1-3)[GlcNAc(b1-6)]Gal(b1-4)GlcNAc
# Summary of the method: as §1
# [3] = biological target: GlcNAc(b1-3)[GlcNAc(b1-6)]GalNAc
# Summary of the method: as §1
# [4] = biological target: GlcNAc(b1-3)[GlcNAc(b1-6)]GlcNAc(b1-4)GlcNAc
# Summary of the method: as §1
# [5] = biological target: GlcNAc(b1-4)Gal(b1-4)GlcNAc
# Summary of the method: as §1
# GlcNAc(b1-4)GlcNAc = biological target: GlcNAc(b1-4)GlcNAc
# Summary of the method: as §1
# [6] = biological target: GlcNAc(b1-4)GlcNAc(b1-4)GlcNAc
# Summary of the method: as §1
# [7] = biological target: GlcNAc(b1-4)GlcNAc(b1-4)GlcNAc(b1-4)GlcNAc(b1-4)GlcNAc
# Summary of the method: as §1
# [8] = biological target: GlcNAc(b1-4)GlcNAc(b1-4)GlcNAc(b1-4)GlcNAc(b1-4)GlcNAc(b1-4)GlcNAc
# Summary of the method: as §1
# [9] = biological target: GlcNAc(b1-4)[GlcNAc(b1-6)]GalNAc
# Summary of the method: as §1
# [10] = biological target: GlcNAc(b1-6)Gal(b1-4)GlcNAc
# Summary of the method: as §1
# GlcNAc(b1-6)GalNAc = biological target: GlcNAc(b1-6)GalNAc
# Summary of the method: as §1
# GlcNAc3Prop(b1-4)GlcNAc = biological target: GlcNAc3Prop(b1-4)GlcNAc
# Summary of the method: as §1
# [11] = biological target: GlcNAc6S(b1-3)Gal(b1-4)GlcNAc
# Summary of the method: as §1
# Kdn(a2-3)Gal(b1-3)GalNAc = biological target: Kdn(a2-3)Gal(b1-3)GalNAc
# Summary of the method: as §1
# Kdn(a2-3)Gal(b1-3)GlcNAc = biological target: Kdn(a2-3)Gal(b1-3)GlcNAc
# Summary of the method: as §1
# Kdn(a2-3)Gal(b1-4)Glc = biological target: Kdn(a2-3)Gal(b1-4)Glc
# Summary of the method: as §1
# Kdn(a2-3)Gal(b1-4)GlcNAc = biological target: Kdn(a2-3)Gal(b1-4)GlcNAc
# Summary of the method: as §1
# [12] = biological target: Kdn(a2-3)Gal(b1-4)[Fuc(a1-3)]GlcNAc
# Summary of the method: as §1
# Kdn(a2-6)Gal(b1-4)GlcNAc = biological target: Kdn(a2-6)Gal(b1-4)GlcNAc
# Summary of the method: as §1
# [13] = biological target: Man(a1-2)Man(a1-2)Man(a1-3)Man
# Summary of the method: as §1
# [14] = biological target: Man(a1-2)Man(a1-2)Man(a1-6)[Man(a1-3)]Man
# Summary of the method: as §1
# Man(a1-2)Man(a1-3)Man = biological target: Man(a1-2)Man(a1-3)Man
# Summary of the method: as §1
# [15] = biological target: Man(a1-2)Man(a1-3)[Man(a1-2)Man(a1-6)]Man
# Summary of the method: as §1
# [16] = biological target: Man(a1-2)Man(a1-3)[Man(a1-2)Man(a1-6)]Man(a1-6)[Man(a1-2)Man(a1-2)Man(a1-3)]Man
# Summary of the method: as §1
# [17] = biological target: Man(a1-2)Man(a1-3)[Man(a1-2)Man(a1-6)]Man(a1-6)[Man(a1-2)Man(a1-2)Man(a1-3)]Man(b1-4)GlcNAc(b1-4)GlcNAc
# Summary of the method: as §1
# [18] = biological target: Man(a1-2)Man(a1-3)[Man(a1-2)Man(a1-6)]Man(a1-6)[Man(a1-3)[Man(a1-6)]Man(a1-6)]Man(b1-4)GlcNAc(b1-4)GlcNAc
# Summary of the method: as §1
# [19] = biological target: Man(a1-2)Man(a1-3)[Man(a1-6)]Man(a1-6)[Man(a1-2)Man(a1-3)]Man(b1-4)GlcNAc(b1-4)GlcNAc
# Summary of the method: as §1
# [20] = biological target: Man(a1-2)Man(a1-6)[Man(a1-3)]Man(a1-6)[Man(a1-2)Man(a1-2)Man(a1-3)]Man
# Summary of the method: as §1
# [21] = biological target: Man(a1-2)Man(a1-6)[Man(a1-3)]Man(a1-6)[Man(a1-2)Man(a1-2)Man(a1-3)]Man(b1-4)GlcNAc(b1-4)GlcNAc
# Summary of the method: as §1
# Man(a1-3)[Man(a1-6)]Man = biological target: Man(a1-3)[Man(a1-6)]Man
# Summary of the method: as §1
# [22] = biological target: Man(a1-3)[Man(a1-6)]Man(a1-6)[Man(a1-2)Man(a1-3)]Man(b1-4)GlcNAc(b1-4)GlcNAc
# Summary of the method: as §1
# [23] = biological target: Man(a1-3)[Man(a1-6)]Man(a1-6)[Man(a1-3)]Man
# Summary of the method: as §1
# [24] = biological target: Man(a1-3)[Man(a1-6)]Man(a1-6)[Man(a1-3)]Man(b1-4)GlcNAc(b1-4)GlcNAc
# Summary of the method: as §1
# [25] = biological target: Man(a1-3)[Man(a1-6)]Man(b1-4)GlcNAc(b1-4)GlcNAc
# Summary of the method: as §1
# Man(a1-6)Man = biological target: Man(a1-6)Man
# Summary of the method: as §1
# Man(b1-4)GlcNAc = biological target: Man(b1-4)GlcNAc
# Summary of the method: as §1
binder,measurement,setting,value
B1,glycan array binding signal (z-score),GlcNAc(b1-3)Man,-0.263
same,glycan array binding signal (z-score),[1],-0.216
same,glycan array binding signal (z-score),[2],-0.282
same,glycan array binding signal (z-score),[3],-0.267
same,glycan array binding signal (z-score),[4],-0.317
same,glycan array binding signal (z-score),[5],-0.273
same,glycan array binding signal (z-score),GlcNAc(b1-4)GlcNAc,-0.176
same,glycan array binding signal (z-score),[6],-0.158
same,glycan array binding signal (z-score),[7],-0.264
same,glycan array binding signal (z-score),[8],-0.227
same,glycan array binding signal (z-score),[9],-0.264
same,glycan array binding signal (z-score),[10],-0.291
same,glycan array binding signal (z-score),GlcNAc(b1-6)GalNAc,-0.244
same,glycan array binding signal (z-score),GlcNAc3Prop(b1-4)GlcNAc,-0.246
same,glycan array binding signal (z-score),[11],-0.088
same,glycan array binding signal (z-score),Kdn(a2-3)Gal(b1-3)GalNAc,-0.241
same,glycan array binding signal (z-score),Kdn(a2-3)Gal(b1-3)GlcNAc,-0.271
same,glycan array binding signal (z-score),Kdn(a2-3)Gal(b1-4)Glc,-0.278
same,glycan array binding signal (z-score),Kdn(a2-3)Gal(b1-4)GlcNAc,-0.242
same,glycan array binding signal (z-score),[12],-0.189
same,glycan array binding signal (z-score),Kdn(a2-6)Gal(b1-4)GlcNAc,-0.265
same,glycan array binding signal (z-score),[13],3.26
same,glycan array binding signal (z-score),[14],4.9
same,glycan array binding signal (z-score),Man(a1-2)Man(a1-3)Man,3.52
same,glycan array binding signal (z-score),[15],3.94
same,glycan array binding signal (z-score),[16],7.48
same,glycan array binding signal (z-score),[17],3.33
same,glycan array binding signal (z-score),[18],3.78
same,glycan array binding signal (z-score),[19],3.79
same,glycan array binding signal (z-score),[20],7.39
same,glycan array binding signal (z-score),[21],4.46
same,glycan array binding signal (z-score),Man(a1-3)[Man(a1-6)]Man,5.51
same,glycan array binding signal (z-score),[22],4.75
same,glycan array binding signal (z-score),[23],4.27
same,glycan array binding signal (z-score),[24],3.83
same,glycan array binding signal (z-score),[25],3.48
same,glycan array binding signal (z-score),Man(a1-6)Man,-0.204
same,glycan array binding signal (z-score),Man(b1-4)GlcNAc,-0.272
